Results published in PubChem BioAssay AID360 (National Center for Advancing Translational Sciences (NCATS), 2006).
Screen size: about 48,000 compounds; about 550 (1.1%) were called active. Another 4% or so got no clear call; they are omitted. No stated cut-off is given here; in the data, active means potency below about 15 µM; inconclusive means mostly about 16 µM to 33 µM; inactive means weaker than that. The list shows a part of the results.

What follows are compounds tested against Lysosomal acid glucosylceramidase (Homo sapiens) (UniProt P04062) (assay: Glucocerebrosidase). Conditions: purified enzyme, resorufin glucoside fluorescence (screen aimed at inhibitors), 20 min; series mostly up to 77 µM.
UniProt P04062, sequence (P04062 whole entry, looked up): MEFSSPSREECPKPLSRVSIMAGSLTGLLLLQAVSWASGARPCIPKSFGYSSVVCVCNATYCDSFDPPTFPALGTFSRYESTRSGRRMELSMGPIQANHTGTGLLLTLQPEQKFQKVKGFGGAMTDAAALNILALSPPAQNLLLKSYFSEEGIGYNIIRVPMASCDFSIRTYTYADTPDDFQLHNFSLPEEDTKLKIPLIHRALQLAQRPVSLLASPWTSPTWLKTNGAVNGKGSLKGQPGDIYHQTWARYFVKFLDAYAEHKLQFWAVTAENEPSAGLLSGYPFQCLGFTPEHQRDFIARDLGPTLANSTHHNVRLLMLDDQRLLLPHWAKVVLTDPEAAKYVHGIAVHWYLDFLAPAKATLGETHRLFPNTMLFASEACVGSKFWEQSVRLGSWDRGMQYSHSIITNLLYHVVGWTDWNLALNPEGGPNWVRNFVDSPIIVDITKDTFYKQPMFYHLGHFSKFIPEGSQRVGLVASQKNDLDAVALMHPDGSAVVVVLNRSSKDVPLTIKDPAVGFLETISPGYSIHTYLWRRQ
Procedure, shortened: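 Compounds titrated against 0.2 nM normal enzyme, 30 uM resorufin beta-D-glucopyranoside substrate, citrate/phosphate buffer with taurocholate and tween-20, pH 5.9. Reaction ran 20 min at room temperature; fluorescence (Ex 548/Em 600) gave AC50.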
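Further: the screen sought inhibitors.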
Potency means the concentration at half of the fitted maximal effect.

Potency, inactive:
C=CCn1c(SCc2c(F)cccc2Cl)nnc1-c1ccco1 > 76.9 µM
COc1ccc(NC(=O)CSc2nc3sc(C)c(C)c3c(=O)n2Cc2ccco2)cc1 > 76.9 µM
O=C(CN1C(=O)C2CC=CCC2C1=O)Nc1ccc(-c2nnc3n2CCCCC3)cc1 (stereo unspecified) > 76.9 µM
CCC(NS(=O)(=O)c1ccc(OC)cc1)C(=O)O (stereo unspecified) > 76.9 µM
CCOC(=O)c1cc2sc(C)cc2n1CC(=O)N1CCOCC1 > 76.9 µM
COC(=O)Cn1cnc2c(C#N)c3n(c2c1=O)CCCCC3 > 76.9 µM
CN=c1scc(C)n1/N=C/c1ccc2c(c1)OCO2 > 76.9 µM
N#Cc1c(Nc2ccccc2)c(C=NCCN2CCOCC2)c[nH]c1=O > 76.9 µM
CCC(C)(C)n1nnnc1C(c1ccccn1)N1CCOCC1 (stereo unspecified) > 76.9 µM
Cc1ccnc(-n2sc3ccccc3c2=O)n1
COC(=O)CN1CCN(C(c2ccccc2)c2ccccc2)CC1 > 76.9 µM
CCCS(=O)(=O)N1CCCC(C(=O)NCCN(CC)c2ccccc2)C1 (stereo unspecified) > 76.9 µM
CC[C@@H](C)[C@H](NC(=O)C1CCN(C(=O)[C@@H](NS(=O)(=O)c2ccc(C)cc2)C(C)C)CC1)C(=O)O > 76.9 µM
O=C(O)C1CC(=O)N(c2ccc(OCc3ccccc3Cl)cc2)C1 (stereo unspecified) > 76.9 µM
COc1cc2c(cc1OC)CN(c1ccc(-c3ccccc3OC)nn1)CC2 > 76.9 µM
COc1ccc(O)c(-c2cc(-c3cccs3)[nH]n2)c1 > 76.9 µM
CC1(C)OC(=O)C(=CNC(Cc2c[nH]c3ccccc23)C(=O)O)C(=O)O1 (stereo unspecified) > 76.9 µM
CCOC(=O)N1CCN(S(=O)(=O)c2c(C)cc(C)cc2C)CC1 > 76.9 µM
O=C(NCc1ccco1)c1ccc(CS(=O)(=O)Cc2ccc(Cl)cc2)o1 > 76.9 µM
O=C(Cc1cccs1)OCC(=O)c1ccco1 > 76.9 µM
c1ccc2c(c1)OCC(c1nnc3sc(-c4ccc5c(c4)OCO5)nn13)O2 (stereo unspecified) > 76.9 µM
COC(=O)c1ccc(Oc2cc(C)nc(NCc3ccccc3)n2)cc1
COc1ccc(OC)c(C2C(C(C)=O)=C(O)C(=O)N2CCC(=O)O)c1 (stereo unspecified) > 76.9 µM
COc1ccc(CNC(=O)C2CCCN(c3nc4ccccc4o3)C2)c(OC)c1 (stereo unspecified) > 76.9 µM
Cc1cnc(SCCc2ccncc2)nc1C > 76.9 µM
COC(=O)C1=C(C)N(Cc2ccco2)C(=O)C1 > 76.9 µM
Cc1c(N=Cc2c(O)n(Cc3ccco3)c(=O)c3ccccc23)c(=O)n(-c2ccccc2)n1C > 76.9 µM
O=C1NCC(CN(c2ccccc2)c2ccccc2)O1 (stereo unspecified) > 76.9 µM
N#Cc1c(NC(=O)Cn2cnc3ccccc3c2=O)oc(-c2ccccc2)c1-c1ccccc1 > 76.9 µM
COc1cccc(C2=NOC(C(=O)N3CCOCC3)C2)c1 (stereo unspecified) > 76.9 µM
CCOC(=O)/C(C(N)=NCCO)=C(/O)c1ccccc1 > 76.9 µM
O=S1(=O)C=CC(Sc2nc3ccccc3[nH]2)C1 (stereo unspecified) > 76.9 µM
COCc1nnc(NC(=O)CCc2ccccc2)s1 > 76.9 µM
COc1cc2c(C(=O)NCc3ccc4c(c3)OCO4)cn(CC(C)C)c(=O)c2cc1OC > 76.9 µM
O=C(CSc1nnc2c(n1)[nH]c1ccc(F)cc12)OCc1ccccc1 > 76.9 µM
O=C(C(Cc1ccccc1)N1C(=O)C2C3C=CC(C3)C2C1=O)N1CCCCCC1 (stereo unspecified) > 76.9 µM
CCn1c(C(C)NC(=O)c2ccc(OC)c(OC)c2)nc2ccccc21 (stereo unspecified) > 76.9 µM
COC(=O)c1ccc2[nH]c(C)c(CN3CCCC3)c(=O)c2c1 > 76.9 µM
Cn1cccc1CNC(=O)Nc1ccc(Cl)c(Cl)c1 > 76.9 µM
CCOc1ccccc1NC(=O)CCS(=O)(=O)c1cccc2nonc12 > 76.9 µM
O=c1[nH]cnc2scc(-c3ccc(F)cc3)c12 > 76.9 µM
COc1ccc(-c2noc(CSc3nc(N)c(-c4ccccc4)c(=O)[nH]3)n2)cc1OC > 76.9 µM
Cc1nc2ccccn2c1C(=O)NCc1ccc2c(c1)OCO2 > 76.9 µM
CCC(=O)N1CCc2cc(S(=O)(=O)CCC(=O)NCc3cccs3)ccc21 > 76.9 µM
COC1CCCCC1NS(=O)(=O)c1ccccc1 (stereo unspecified) > 76.9 µM
CCCOC(=O)c1ccc(Oc2c(-c3ccc(O)cc3O)n[nH]c2C)cc1
O=C1OC(c2ccc(Br)cc2)=N/C1=C\N1CCCCC1 > 76.9 µM
Cc1nn(-c2ccccn2)c2c1-c1nc(N)ncc1CC2 > 76.9 µM
O=C1C(Cl)=C(NCC2CCCO2)C(=O)N1c1ccccc1 (stereo unspecified) > 76.9 µM
CCOc1cc(-c2noc(CCCC(N)=O)n2)cc(Br)c1OC > 76.9 µM
CCCn1c(SCC(=O)NCc2ccco2)nc2c1c(=O)n(C)c(=O)n2C > 76.9 µM
COc1ccc(N2C(=O)CCC(C(=O)N3CCCCC3)C2c2ccc(F)cc2)cc1 (stereo unspecified) > 76.9 µM
COc1ccc(CC(=O)OCc2nnc(C3COc4ccccc4O3)o2)cc1OC (stereo unspecified) > 76.9 µM
CCN(CCCCN1C(=O)c2ccccc2C1=O)c1ccc2c(c1)C(=O)N(C)C2=O > 76.9 µM
CCn1c(SCC(=O)Nc2cccc(NC(=O)c3cccs3)c2)nnc1-c1ccncc1 > 76.9 µM
Cc1ccccc1-n1c(SCC(=O)N2CCN(c3ccccc3)CC2)nnc1-c1ccncc1 > 76.9 µM
Nn1c(COc2ccccc2)nnc1SCc1cc(=O)[nH]c2ccccc12 > 76.9 µM
COc1ccc(S(=O)(=O)Nc2ccc(C)cc2)cc1OC > 76.9 µM
O=C1CC(C(=O)NCc2ccccc2)N=C(N2CCCCC2)N1 (stereo unspecified) > 76.9 µM
O=C(CCN1C(=O)COc2ccccc21)NCCN1CCN(c2ccccc2F)CC1 > 76.9 µM
O=C(NCc1ccccn1)C1CCN(S(=O)(=O)c2ccccc2)CC1 > 76.9 µM
Cc1cccc(-n2c(N)cc(=O)[nH]c2=S)c1C > 76.9 µM
CCCCOc1nc(N)nc(-c2ccccc2)n1 > 76.9 µM
CCC(c1nnc(SCC(=O)Nc2nnc(-c3ccccc3)o2)o1)N(C)C (stereo unspecified) > 76.9 µM
O=S(=O)(Nc1ccncc1)c1ccccc1 > 76.9 µM
Cc1ccc(Cn2ccc(NC(=O)c3cc(-c4ccco4)on3)n2)cc1 > 76.9 µM
CCOC(=O)c1c(NC(=O)c2noc3c2CCCC3)sc(C)c1C > 76.9 µM
CCOC(=O)CSc1nnc(CNC(=O)c2ccc(OC)cc2OC)n1C > 76.9 µM
CC(=O)c1cn(CC(=O)NCc2ccc3c(c2)OCO3)c2ccccc12 > 76.9 µM
COc1ccccc1C(=O)N1CCN(C(=O)COc2cccc(C)c2)CC1 > 76.9 µM
COc1ccc2c(c1)CCC(C)N2S(=O)(=O)c1ccc(C2CNC(=O)C2)cc1 (stereo unspecified) > 76.9 µM
Cc1cc(NC(=O)CSc2ncnc3sc4c(c23)CCC(C)C4)no1 (stereo unspecified) > 76.9 µM
COc1ccc(C(CC(=O)O)NC(=O)c2cccs2)cc1 (stereo unspecified) > 76.9 µM
Cc1ccccc1OCC(=O)N(Cc1nc(-c2ccccc2)no1)C(C)C > 76.9 µM
c1ccc(Cn2nnc3c(N4CCCC4)ncnc32)cc1 > 76.9 µM
CCOC(=O)COc1ccc(S(=O)(=O)NCc2ccncc2)cc1 > 76.9 µM
Cc1ccc(CN2C(=O)CCC2C(=O)N2CCN(c3ccc(F)cc3)CC2)cc1 (stereo unspecified) > 76.9 µM
CC(=O)COc1cc(C)cc2oc(=O)c(C)c(C)c12 > 76.9 µM
O=C(OCc1nc2ccccc2s1)C1CCN(S(=O)(=O)c2cccs2)CC1 > 76.9 µM
CCOc1ccc(CCNC(=O)Cn2c(-c3nonc3N)nc3ccccc32)cc1OCC > 76.9 µM
COc1ccccc1NC(=O)c1nnn(CC(=O)Nc2ccccc2)c1N > 76.9 µM
COCCCNC(=O)C1CCN(C(=O)Nc2ccc(Cl)cc2)CC1 > 76.9 µM
O=C(c1ccco1)N1CCN(C(=O)C2CCCO2)CC1 (stereo unspecified) > 76.9 µM
Cn1c(SCC(=O)N2CCc3ccccc3C2)nnc1-c1cccs1 > 76.9 µM
CN(C(=O)COC(=O)c1ccc2c(c1)OCO2)C1CCS(=O)(=O)C1 (stereo unspecified) > 76.9 µM
COc1ccc(N(Cc2cc3ccc(C)cc3[nH]c2=O)C(C)=O)cc1 > 76.9 µM
COc1cccc(OC)c1OCCOCCn1cnc2ccccc2c1=O > 76.9 µM
Cc1ccc(-c2noc(CCC(N)=O)n2)cc1 > 76.9 µM
O=C(c1ccc(Cl)cc1)N(Cc1cccs1)C1CCS(=O)(=O)C1 (stereo unspecified) > 76.9 µM
Cc1occc1C(=O)Nc1cc(C(F)(F)F)ccc1Cl > 76.9 µM
CCOC(=O)c1cnn(-c2nc(C)nc3sc4c(c23)CCC4)c1N > 76.9 µM
